{"source": "the supplement of paper PMC11417369", "note": "This is one part of the list.", "data": [{"system": "PfHDP1 homeodomain (GST-tagged)", "experiment": "gcPBM binding intensity (ln(normalized median fluorescence intensity)); higher = stronger DNA binding", "summary_of_the_method": "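Each value is the highest Masliner-normalised natural-log median intensity across replicate spots of either orientation of a probe. The probes were primer-extended double-stranded 36-bp intergenic genomic sequences on an Agilent 4 × 180k array, alongside negative controls, exposed for 1 h to GST-tagged P. falciparum DNA-binding domains expressed in E. coli. Bound protein was picked up with Alexa488 anti-GST antibody and scanned at 488 nm.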", "values": [{"sequence": "AAGGTATATATAACTACACACTTATATATAATCTAA [CACACA_site92]", "gcPBM binding intensity (ln)": 6.23}, {"sequence": "GTAAAAATACAAAAGGTGCTCAAACAATATAATACA", "gcPBM binding intensity (ln)": 7.08}, {"sequence": "TACATACCTATATACACATGCATATTTACATATATT [TGCATGCA_site206]", "gcPBM binding intensity (ln)": 7.59}, {"sequence": "TACATACAGATATATACACACATATATAATATATAT [CACACA_site4376]", "gcPBM binding intensity (ln)": 6.84}, {"sequence": "AAAATTAAATTATAAGCACACACATATATATATATA [CACACA_site9105]", "gcPBM binding intensity (ln)": 9.32}, {"sequence": "TATATAATATATATGACACACATATTTATATAAATA [CACACA_site4054]", "gcPBM binding intensity (ln)": 6.28}, {"sequence": "GAATATTAAACAAACACACACACATATATTTATATA [CACACA_site7563]", "gcPBM binding intensity (ln)": 6.78}, {"sequence": "AATGGATTGATAAGTGGTACACACATATATATTATA [XGTACX_site6086]", "gcPBM binding intensity (ln)": 6.47}, {"sequence": "CTTTAGTTTTTAATGTGTACTGAATTTGAATAGTAG [XGTACX_site7920]", "gcPBM binding intensity (ln)": 6.26}, {"sequence": "CGTATTATTTTATAAACACACAAGGGGGCATGTATA [CACACA_site6489]", "gcPBM binding intensity (ln)": 7.82}, {"sequence": "TTGATATGTACAGGCACACATAAATTTCACAAATAT [CACACA_site3999]", "gcPBM binding intensity (ln)": 6.49}, {"sequence": "CATAAATGTATATAAACATGCAAGGACAGACTTTTA [TGCATGCA_site900]", "gcPBM binding intensity (ln)": 6.32}, {"sequence": "ATATAATTAAAAACATGTACATATATATATATATAT [XGTACX_site2882]", "gcPBM binding intensity (ln)": 9.26}, {"sequence": "AATAAATAAAAAAAAAAAAAAAAAAAAAAAAAAAAA [XGTACX_negctrl_site343]", "gcPBM binding intensity (ln)": 5.99}, {"sequence": "TTTTTTTTTTTTGTAATACACACCACTATATGTTAT [CACACA_site1844]", "gcPBM binding intensity (ln)": 6.57}, {"sequence": "TTCTGTTGGAATATATGTACATAATAAAAAAAAATA [XGTACX_site1741]", "gcPBM binding intensity (ln)": 6.74}, {"sequence": "TATGGCAAAACATTCACACATATTTATATATGTGTA [CACACA_site5588]", "gcPBM binding intensity (ln)": 6.22}, {"sequence": "AGTTTTATAAAAATATGTACTTATATACACATGTAT [XGTACX_site4022]", "gcPBM binding intensity (ln)": 6.65}, {"sequence": "TGTAGTCTGGAGAAAAGTACACAGTATCTGGTAACA [XGTACX_site2010]", "gcPBM binding intensity (ln)": 6.07}, {"sequence": "TATTCTGGTGTAAATGCACACAGAAGAAGAAAAAAA [CACACA_site9225]", "gcPBM binding intensity (ln)": 8.49}, {"sequence": "AAGGACACCTTCAAAACACACATACAAATAAATAGA [CACACA_site5771]", "gcPBM binding intensity (ln)": 6.86}, {"sequence": "CATTTAGAATAAGGCACACATAAAGAACACTTTCCA [CACACA_site130]", "gcPBM binding intensity (ln)": 6.3}, {"sequence": "TTATCTTAATTGTGATTATAAAGATATTCTTTCTAT [GTGCAC_negctrl_site410]", "gcPBM binding intensity (ln)": 5.95}, {"sequence": "CAACCTCATAATATTTAACACACAAAATTATATGTA [CACACA_site8496]", "gcPBM binding intensity (ln)": 6.23}, {"sequence": "TAAGTCGTTATAAGCACACACATAAATAAAAATAAA [CACACA_site1574]", "gcPBM binding intensity (ln)": 6.7}, {"sequence": "TCAATTTTTTAATGTTGTACTTTGTAAAAAAAAATA [XGTACX_site8481]", "gcPBM binding intensity (ln)": 6.2}, {"sequence": "ATATATTTATATAGGTGTACATATTTTGCTATTCAA [XGTACX_site5199]", "gcPBM binding intensity (ln)": 6.38}, {"sequence": "AAGGGTTATAAAAATTGTACTTTTTTTATTTTTTTT [XGTACX_site1313]", "gcPBM binding intensity (ln)": 6.48}, {"sequence": "ATACCAAATGAATAATGTACATACGAACATACATAT [XGTACX_site1301]", "gcPBM binding intensity (ln)": 6.51}, {"sequence": "ATATTTTTAACCAAGGACACAATTCTTGTATTGTTA [CACACA_negctrl_site1326]", "gcPBM binding intensity (ln)": 6.21}, {"sequence": "AAAAGATTAAGTAGAATAATGTTCTTTCCCAACATA [GTGCAC_negctrl_site223]", "gcPBM binding intensity (ln)": 5.77}, {"sequence": "GTACATTGTAAGGATGGAAAAGCTAAACATTATAAT [XGTACX_negctrl_site339]", "gcPBM binding intensity (ln)": 6.69}, {"sequence": "CCTGAACACATACATACACACACACTAATAAAAAAA [CACACA_site8023]", "gcPBM binding intensity (ln)": 7.01}, {"sequence": "GCCATTAATTTATACACACACATTATGATTTTTTAT [CACACA_site754]", "gcPBM binding intensity (ln)": 7.37}, {"sequence": "AAAATGTGCCCACGCGTACACACAAAAAAAGAAAAA [CACACA_site2004]", "gcPBM binding intensity (ln)": 6.13}, {"sequence": "TACAAACTATGATGCACACATATATATATGTATACA [CACACA_site1226]", "gcPBM binding intensity (ln)": 9.43}, {"sequence": "ATGCATATGTTTATTGCACACACCAAAAAGAAAACA [CACACA_site403]", "gcPBM binding intensity (ln)": 9.25}, {"sequence": "AATAATTAAAATTATCTACACACCTTTATAAATATA [CACACA_site9300]", "gcPBM binding intensity (ln)": 6.26}, {"sequence": "AATTTAAACAAGGATCCACACACCCCAAAAAAAAAA [CACACA_site8125]", "gcPBM binding intensity (ln)": 7.06}, {"sequence": "ATATATACATATATATGTACGTATATTTTTATTTCT [XGTACX_site6198]", "gcPBM binding intensity (ln)": 6.69}, {"sequence": "ATTTAACAACTTCAAACACACAATATAGATTTATAT [CACACA_site7067]", "gcPBM binding intensity (ln)": 6.6}, {"sequence": "TATAAACCCACCTACACACACAACGTAAATGCATTG [CACACA_site2238]", "gcPBM binding intensity (ln)": 6.96}, {"sequence": "AAAAAAAAAAAAACATGTACATAAATGTAAAAAAGT [XGTACX_site8158]", "gcPBM binding intensity (ln)": 6.62}, {"sequence": "AACATACACATATACACACACACATATATACATATA [CACACA_site1093]", "gcPBM binding intensity (ln)": 7.65}, {"sequence": "AATTAAGTTAAACATTAAAAAAAACAAAAAATTAAA [CACACA_negctrl_site1333]", "gcPBM binding intensity (ln)": 6.48}]}]}
